# This is one part of the list.
# B1: HBHA-Rv (Mycobacterium tuberculosum), P0A5P6 (protein)
# chain: MAENSNIDDIKAPLLAALGAADLALATVNELITNLRERAEETRTDTRSRVEESRARLTKLQEDLPEQLTELREKFTAEELRKAAEGYLEAATSRYNELVERGEAALERLRSQQSFEEVSARAEGYVDQAVELTQEALGTVASQTRAVGERAAKLVGIELPKKAAPAKKAAPAKKAAPAKKAAAKKAPAKKAAAKKVTQK
# Assays:
# Test in all cases: glycan array binding signal (z-score within array); higher = stronger binding
# Details in all cases: glycan notation: IUPAC condensed, linker removed
# [1] = target: Neu5Ac(a2-3)Gal6S(b1-4)[Fuc(a1-3)]GlcNAc
# In short: (§1)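 Arrays were curated from the Consortium for Functional Glycomics database, 3228 in total, and kept only where the protein sequence was available. Binding is expressed as a within-array Z-score. This score was averaged across arrays of the same protein sequence at different concentrations or buffers and across linkers, and negative values can be read as non-binding.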
# Neu5Ac(a2-3)GalNAc = target: Neu5Ac(a2-3)GalNAc
# In short: as §1
# [2] = target: Neu5Ac(a2-3)GalNAc(b1-4)GlcNAc
# In short: as §1
# [3] = target: Neu5Ac(a2-3)[GalNAc(b1-4)]Gal(b1-4)Glc
# In short: as §1
# [4] = target: Neu5Ac(a2-3)[GalNAc(b1-4)]Gal(b1-4)GlcNAc
# In short: as §1
# [5] = target: Neu5Ac(a2-3)[GalNAc(b1-4)]Gal(b1-4)GlcNAc(b1-3)GalNAc
# In short: as §1
# [6] = target: Neu5Ac(a2-3)[Neu5Ac(a2-6)]GalNAc
# In short: as §1
# Neu5Ac(a2-6)Gal = target: Neu5Ac(a2-6)Gal
# In short: as §1
# [7] = target: Neu5Ac(a2-6)Gal(b1-3)GlcNAc(b1-3)[Gal(b1-4)GlcNAc(b1-6)]Gal(b1-4)Glc
# In short: as §1
# Neu5Ac(a2-6)Gal(b1-4)Glc = target: Neu5Ac(a2-6)Gal(b1-4)Glc
# In short: as §1
# [8] = target: Neu5Ac(a2-6)Gal(b1-4)GlcNAc
# In short: as §1
# [9] = target: Neu5Ac(a2-6)Gal(b1-4)GlcNAc(b1-2)Man
# In short: as §1
# [10] = target: Neu5Ac(a2-6)Gal(b1-4)GlcNAc(b1-2)Man(a1-3)Man(b1-4)GlcNAc(b1-4)GlcNAc
# In short: as §1
# [11] = target: Neu5Ac(a2-6)Gal(b1-4)GlcNAc(b1-2)Man(a1-3)[Gal(b1-4)GlcNAc(b1-2)Man(a1-6)]Man(b1-4)GlcNAc(b1-4)GlcNAc
# In short: as §1
# [12] = target: Neu5Ac(a2-6)Gal(b1-4)GlcNAc(b1-2)Man(a1-3)[GlcNAc(b1-2)Man(a1-6)]Man(b1-4)GlcNAc(b1-4)GlcNAc
# In short: as §1
# [13] = target: Neu5Ac(a2-6)Gal(b1-4)GlcNAc(b1-2)Man(a1-3)[GlcNAc(b1-4)][Neu5Ac(a2-6)Gal(b1-4)GlcNAc(b1-2)Man(a1-6)]Man(b1-4)GlcNAc(b1-4)GlcNAc
# In short: as §1
# [14] = target: Neu5Ac(a2-6)Gal(b1-4)GlcNAc(b1-2)Man(a1-3)[Man(a1-6)]Man(b1-4)GlcNAc(b1-4)GlcNAc
# In short: as §1
# [15] = target: Neu5Ac(a2-6)Gal(b1-4)GlcNAc(b1-2)Man(a1-3)[Neu5Ac(a2-3)Gal(b1-4)GlcNAc(b1-2)Man(a1-6)]Man(b1-4)GlcNAc(b1-4)GlcNAc
# In short: as §1
# [16] = target: Neu5Ac(a2-6)Gal(b1-4)GlcNAc(b1-2)Man(a1-3)[Neu5Ac(a2-6)Gal(b1-4)GlcNAc(b1-2)Man(a1-6)]Man(b1-4)GlcNAc(b1-4)GlcNAc
# In short: as §1
# [17] = target: Neu5Ac(a2-6)Gal(b1-4)GlcNAc(b1-2)Man(a1-3)[Neu5Ac(a2-6)Gal(b1-4)GlcNAc(b1-2)Man(a1-6)]Man(b1-4)GlcNAc(b1-4)[Fuc(a1-6)]GlcNAc
# In short: as §1
# [18] = target: Neu5Ac(a2-6)Gal(b1-4)GlcNAc(b1-2)Man(a1-6)Man(b1-4)GlcNAc(b1-4)GlcNAc
# In short: as §1
# [19] = target: Neu5Ac(a2-6)Gal(b1-4)GlcNAc(b1-2)Man(a1-6)[Gal(b1-4)GlcNAc(b1-2)Man(a1-3)]Man(b1-4)GlcNAc(b1-4)GlcNAc
# In short: as §1
# [20] = target: Neu5Ac(a2-6)Gal(b1-4)GlcNAc(b1-2)Man(a1-6)[GlcNAc(b1-2)Man(a1-3)]Man(b1-4)GlcNAc(b1-4)GlcNAc
# In short: as §1
# [21] = target: Neu5Ac(a2-6)Gal(b1-4)GlcNAc(b1-2)Man(a1-6)[Man(a1-3)]Man(b1-4)GlcNAc(b1-4)GlcNAc
# In short: as §1
# [22] = target: Neu5Ac(a2-6)Gal(b1-4)GlcNAc(b1-2)[Neu5Ac(a2-6)Gal(b1-4)GlcNAc(b1-4)]Man(a1-3)[GlcNAc(b1-4)][Neu5Ac(a2-6)Gal(b1-4)GlcNAc(b1-2)[Neu5Ac(a2-6)Gal(b1-4)GlcNAc(b1-6)]Man(a1-6)]Man(b1-4)GlcNAc(b1-4)GlcNAc
# In short: as §1
# [23] = target: Neu5Ac(a2-6)Gal(b1-4)GlcNAc(b1-2)[Neu5Ac(a2-6)Gal(b1-4)GlcNAc(b1-4)]Man(a1-3)[GlcNAc(b1-4)][Neu5Ac(a2-6)Gal(b1-4)GlcNAc(b1-4)Man(a1-6)]Man(b1-4)GlcNAc(b1-4)GlcNAc
# In short: as §1
# [24] = target: Neu5Ac(a2-6)Gal(b1-4)GlcNAc(b1-2)[Neu5Ac(a2-6)Gal(b1-4)GlcNAc(b1-6)]Man(a1-6)[Neu5Ac(a2-6)Gal(b1-4)GlcNAc(b1-2)Man(a1-3)][GlcNAc(b1-4)]Man(b1-4)GlcNAc(b1-4)GlcNAc
# In short: as §1
# [25] = target: Neu5Ac(a2-6)Gal(b1-4)GlcNAc(b1-3)Gal(b1-3)GlcNAc
# In short: as §1
# [26] = target: Neu5Ac(a2-6)Gal(b1-4)GlcNAc(b1-3)Gal(b1-4)GlcNAc
# In short: as §1
# [27] = target: Neu5Ac(a2-6)Gal(b1-4)GlcNAc(b1-3)Gal(b1-4)GlcNAc(b1-2)Man(a1-3)[Neu5Ac(a2-6)Gal(b1-4)GlcNAc(b1-3)Gal(b1-4)GlcNAc(b1-2)Man(a1-6)]GalNAc
# In short: as §1
# [28] = target: Neu5Ac(a2-6)Gal(b1-4)GlcNAc(b1-3)Gal(b1-4)GlcNAc(b1-3)Gal(b1-4)GlcNAc
# In short: as §1
# [29] = target: Neu5Ac(a2-6)Gal(b1-4)GlcNAc(b1-3)Gal(b1-4)GlcNAc(b1-3)Gal(b1-4)GlcNAc(b1-2)Man(a1-3)[Neu5Ac(a2-6)Gal(b1-4)GlcNAc(b1-3)Gal(b1-4)GlcNAc(b1-3)Gal(b1-4)GlcNAc(b1-2)Man(a1-6)]GalNAc
# In short: as §1
# [30] = target: Neu5Ac(a2-6)Gal(b1-4)GlcNAc(b1-3)Gal(b1-4)GlcNAc(b1-3)GalNAc
# In short: as §1
# [31] = target: Neu5Ac(a2-6)Gal(b1-4)GlcNAc(b1-3)Gal(b1-4)GlcNAc(b1-3)[Neu5Ac(a2-6)Gal(b1-4)GlcNAc(b1-3)Gal(b1-4)GlcNAc(b1-6)]GalNAc
# In short: as §1
# [32] = target: Neu5Ac(a2-6)Gal(b1-4)GlcNAc(b1-3)Gal(b1-4)GlcNAc(b1-6)[Gal(b1-3)]GalNAc
# In short: as §1
# [33] = target: Neu5Ac(a2-6)Gal(b1-4)GlcNAc(b1-3)Gal(b1-4)[Fuc(a1-3)]GlcNAc(b1-3)Gal(b1-4)[Fuc(a1-3)]GlcNAc
# In short: as §1
# [34] = target: Neu5Ac(a2-6)Gal(b1-4)GlcNAc(b1-3)GalNAc
# In short: as §1
# [35] = target: Neu5Ac(a2-6)Gal(b1-4)GlcNAc(b1-3)[Neu5Ac(a2-6)Gal(b1-4)GlcNAc(b1-6)]GalNAc
# In short: as §1
# [36] = target: Neu5Ac(a2-6)Gal(b1-4)GlcNAc(b1-6)GalNAc
# In short: as §1
# [37] = target: Neu5Ac(a2-6)Gal(b1-4)GlcNAc(b1-6)[Gal(b1-3)GlcNAc(b1-3)]Gal(b1-4)Glc
# In short: as §1
# [38] = target: Neu5Ac(a2-6)Gal(b1-4)GlcNAc(b1-6)[Gal(b1-3)]GalNAc
# In short: as §1
# [39] = target: Neu5Ac(a2-6)Gal(b1-4)GlcNAc6S
# In short: as §1
# Neu5Ac(a2-6)GalNAc = target: Neu5Ac(a2-6)GalNAc
# In short: as §1
# [40] = target: Neu5Ac(a2-6)GalNAc(b1-4)GlcNAc
# In short: as §1
# [41] = target: Neu5Ac(a2-6)GalNAc(b1-4)GlcNAc6S
# In short: as §1
binder,measurement,setting,value
B1,glycan array binding signal (z-score),[1],0.273
same,glycan array binding signal (z-score),Neu5Ac(a2-3)GalNAc,0.335
same,glycan array binding signal (z-score),[2],-0.046
same,glycan array binding signal (z-score),[3],0.149
same,glycan array binding signal (z-score),[4],-0.242
same,glycan array binding signal (z-score),[5],-0.415
same,glycan array binding signal (z-score),[6],-0.374
same,glycan array binding signal (z-score),Neu5Ac(a2-6)Gal,-0.159
same,glycan array binding signal (z-score),[7],-0.459
same,glycan array binding signal (z-score),Neu5Ac(a2-6)Gal(b1-4)Glc,-0.211
same,glycan array binding signal (z-score),[8],0.008
same,glycan array binding signal (z-score),[9],-0.298
same,glycan array binding signal (z-score),[10],-0.457
same,glycan array binding signal (z-score),[11],-0.354
same,glycan array binding signal (z-score),[12],0.173
same,glycan array binding signal (z-score),[13],-0.404
same,glycan array binding signal (z-score),[14],-0.404
same,glycan array binding signal (z-score),[15],-0.42
same,glycan array binding signal (z-score),[16],-0.129
same,glycan array binding signal (z-score),[17],-0.469
same,glycan array binding signal (z-score),[18],-0.404
same,glycan array binding signal (z-score),[19],-0.392
same,glycan array binding signal (z-score),[20],-0.465
same,glycan array binding signal (z-score),[21],-0.302
same,glycan array binding signal (z-score),[22],-0.416
same,glycan array binding signal (z-score),[23],-0.077
same,glycan array binding signal (z-score),[24],-0.441
same,glycan array binding signal (z-score),[25],-0.037
same,glycan array binding signal (z-score),[26],-0.321
same,glycan array binding signal (z-score),[27],-0.407
same,glycan array binding signal (z-score),[28],-0.395
same,glycan array binding signal (z-score),[29],-0.089
same,glycan array binding signal (z-score),[30],-0.379
same,glycan array binding signal (z-score),[31],-0.41
same,glycan array binding signal (z-score),[32],-0.403
same,glycan array binding signal (z-score),[33],-0.145
same,glycan array binding signal (z-score),[34],-0.032
same,glycan array binding signal (z-score),[35],-0.388
same,glycan array binding signal (z-score),[36],-0.187
same,glycan array binding signal (z-score),[37],-0.2
same,glycan array binding signal (z-score),[38],-0.461
same,glycan array binding signal (z-score),[39],0.145
same,glycan array binding signal (z-score),Neu5Ac(a2-6)GalNAc,0.287
same,glycan array binding signal (z-score),[40],-0.342
same,glycan array binding signal (z-score),[41],0.057
